# PubChem BioAssay (Tox21)
# Where “and” joins values, the source holds several entries; their conditions need not be identical. Equal values may be shown once. The inconclusive results got no clear call from the source; some entries with a clear call stand among them for comparison. A potency beside an inconclusive call is a rough fit, not a confirmed value. The source holds several records for some structures; these can differ, active in one and inactive in another. Calls of active or inactive are those of the source. Calls follow the shape of the dose curve; as a rule, active = well fitted curve in the direction sought with a large enough effect in the repeat runs; inconclusive = weak or mixed curves; inactive = no such curve, though single readings can be large; an effect the other way counts as inactive or inconclusive.
# How the values were obtained:
# [1] = molecular target: Cytochrome P450 2C19 (Homo sapiens) (UniProt P33261); experiment: Cytochrome P450 Family 2 Subfamily C Member 19 (CYP2C19) small molecule antagonists: luciferase reporter qHTS assay (AID 1671197); details: P450-Glo CYP2C19 enzyme, luciferin luminescence, 1 h; series mostly up to 115 µM; also: nearly all actives have a fitted effect of over 65% in size
# Outline: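 Light output is proportional to CYP2C19 activity: proluciferin substrate is converted to luciferin, then detected by a luciferin detection reagent that also stops the 1 h, 37C NADPH-driven reaction. Ketoconazole serves as positive control.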
# [2] = molecular target: Cytochrome P450 2D6 (Homo sapiens) (UniProt P10635); experiment: Cytochrome P450 Family 2 Subfamily D Member 6 (CYP2D6) small molecule antagonists: luciferase reporter qHTS assay (AID 1671196); details: P450-Glo CYP2D6 enzyme assay, luciferin luminescence, 1 h; series mostly up to 115 µM; also: nearly all actives have a fitted effect of over 50% in size
# Outline: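 Quantitative HTS of Tox21 chemicals against CYP2D6 using a luminescent proluciferin substrate. After NADPH addition, 1 h room-temperature reaction; luminescence recorded 20 min post detection reagent.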
# [3] = molecular target: Nuclear receptor subfamily 1 group I member 2 (Homo sapiens) (UniProt O75469); experiment: Human pregnane X receptor (PXR) activation by small molecules, qHTS assay (AID 1346985); details: DPX-2 HepG2 CYP3A4-luciferase, 24 h; series mostly up to 38.3 µM; also: nearly all actives have a fitted effect of over 40% in size
# Outline: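 DPX-2 cells (HepG2 co-transfected with a PXR response element and a CYP3A4-promoter luciferase construct) were seeded at 2,000 per well, rested 5 hr at 37C, then exposed to DMSO-dissolved compounds for 24 hr. Activation was read as luciferase luminescence.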
# Potency is read from the fitted curve at half-maximal effect; tags tell the direction and shape of the fitted curve.
# Sequence of UniProt P33261 (P33261 whole entry, looked up): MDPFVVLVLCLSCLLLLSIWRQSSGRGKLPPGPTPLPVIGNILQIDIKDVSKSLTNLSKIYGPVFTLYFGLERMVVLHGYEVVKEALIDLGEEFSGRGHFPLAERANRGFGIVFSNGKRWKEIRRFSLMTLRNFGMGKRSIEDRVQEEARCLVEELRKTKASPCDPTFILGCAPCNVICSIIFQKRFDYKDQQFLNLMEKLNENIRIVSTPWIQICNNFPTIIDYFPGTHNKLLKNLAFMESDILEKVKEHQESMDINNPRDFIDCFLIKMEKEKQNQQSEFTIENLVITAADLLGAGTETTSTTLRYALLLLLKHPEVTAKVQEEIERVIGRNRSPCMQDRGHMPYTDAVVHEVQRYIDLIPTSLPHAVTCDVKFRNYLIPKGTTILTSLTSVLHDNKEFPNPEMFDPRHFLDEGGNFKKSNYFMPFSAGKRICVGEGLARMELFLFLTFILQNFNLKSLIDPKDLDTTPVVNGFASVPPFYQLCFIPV
# Sequence of UniProt P10635 (P10635 whole entry, looked up): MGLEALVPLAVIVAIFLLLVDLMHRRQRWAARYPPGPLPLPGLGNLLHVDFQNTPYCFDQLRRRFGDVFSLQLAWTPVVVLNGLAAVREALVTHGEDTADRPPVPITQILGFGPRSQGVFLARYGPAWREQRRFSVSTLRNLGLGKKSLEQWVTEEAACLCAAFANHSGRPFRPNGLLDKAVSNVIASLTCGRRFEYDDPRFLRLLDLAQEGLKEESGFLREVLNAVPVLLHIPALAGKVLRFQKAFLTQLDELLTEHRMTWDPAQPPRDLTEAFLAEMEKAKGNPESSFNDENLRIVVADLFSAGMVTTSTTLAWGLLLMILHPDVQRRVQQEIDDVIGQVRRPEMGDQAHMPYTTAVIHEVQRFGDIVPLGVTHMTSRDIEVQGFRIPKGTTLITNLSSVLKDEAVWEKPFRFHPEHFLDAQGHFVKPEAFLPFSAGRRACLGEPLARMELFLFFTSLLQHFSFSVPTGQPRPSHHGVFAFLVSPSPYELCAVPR
structure (smiles),measurement,setting,value
CCc1cc(Cc2cc(CC)cc(C(C)(C)C)c2O)c(O)c(C(C)(C)C)c1,Potency,[1],"inconclusive: 5.64 µM [inhibitor, full curve, poor fit]"
CCN(CC)CCOC(=O)c1ccc(N)cc1,Potency,[2],active: 5.95 µM and active: 15.5 µM
O=C(O)c1ccc(S(=O)(=O)N(Cl)Cl)cc1,Potency,[2],active: 35.8 µM
CCCCCCCC/C=C\CCCCCCCC(=O)N(CCO)CCO,Potency,[2],"inconclusive: 19.9 µM [inhibitor, full curve]"
same,Potency,[1],active: 19.9 µM
CCCCCCCCCOC(=O)c1ccc(O)cc1,Potency,[2],"inconclusive: 62.4 µM [inhibitor, partial curve]"
CC[C@H]1O[C@]2(CC[C@@H]1C)C[C@@H]1C[C@@H](C/C=C(\C)C[C@@H](C)/C=C/C=C3\CO[C@@H]4[C@H](O)C(C)=C[C@@H](C(=O)O1)[C@]34O)O2,Potency,[2],"inconclusive: 25 µM [inhibitor, full curve]"
O=C1C=CC(=O)N1c1ccccc1,Potency,[2],active: 39.9 µM
Cc1ccc2nc(-c3ccc(N)cc3)sc2c1S(=O)(=O)O,Potency,[2],"inconclusive: 35 µM [inhibitor, partial curve, poor fit]"
CCCCC/C(C=O)=C\c1ccccc1,Potency,[2],"active: 63.4 µM and inconclusive: 56.4 µM [inhibitor, partial curve, poor fit]"
CC(O)C(=O)O (stereo unspecified),Potency,[2],"inconclusive: 40.6 µM [inhibitor, partial curve] and inconclusive: 15.5 µM [inhibitor, partial curve]"
same,Potency,[1],"inconclusive: 27.5 µM [inhibitor, partial curve]"
Cc1nc(-c2ccc3c(c2)CCN(CCC2CCC(NC(=O)/C=C/c4ccc(F)cc4)CC2)CC3)no1 (stereo unspecified),Potency,[1],inactive
c1ccc2cc3ccccc3cc2c1,Potency,[2],inactive
O=C(O)c1ccc([N+](=O)[O-])cc1,Potency,[1],"inconclusive: 0.633 µM [inhibitor, single point]"
Cc1ccc(N)c(S(=O)(=O)O)c1,Potency,[2],"inconclusive: 71.9 µM [inhibitor, partial curve, poor fit]"
Cc1cc(Cc2ccc(N)c(C)c2)ccc1N,Potency,[2],"inconclusive: 71 µM [inhibitor, partial curve] and inconclusive: 63.3 µM [inhibitor]"
same,Potency,[1],active: 3.56 µM and active: 5.03 µM
c1ccc2occc2c1,Potency,[1],"inconclusive: 79.6 µM [inhibitor, partial curve, poor fit]"
O=C(c1ccc(O)cc1)c1ccc(O)cc1O,Potency,[1],active: 32.1 µM and inactive
O=C(O)CN(CC(=O)O)CC(=O)O,Potency,[1],active: 36.1 µM and inactive
O=C(NO)c1ccccc1,Potency,[1],"inconclusive: 38 µM [inhibitor, partial curve]"
CC(C)c1ccc(S(=O)(=O)O)cc1,Potency,[1],inactive
CCC1(c2cnc[nH]2)Cc2ccccc2C1,Potency,[2],active: 0.977 µM
Cc1cc(C(C)(C)C)c(O)c(C(C)(C)C)c1,Potency,[2],"inconclusive: 40 µM [inhibitor, partial curve]"
COCCCN,Potency,[1],"inconclusive: 88.3 µM [inhibitor, single point]"
c1ccc(Sc2ccccc2)cc1,Potency,[1],active: 7.1 µM
COc1ccc(N)c(C)c1,Potency,[1],active: 39.8 µM and active: 39.9 µM
CCC(C)OC(=O)c1ccc(O)cc1 (stereo unspecified),Potency,[2],"inconclusive: 50.6 µM [inhibitor, partial curve]"
Nc1ccc(S(=O)(=O)Nc2cnc3ccccc3n2)cc1,Potency,[2],"inconclusive: 31.7 µM [inhibitor, partial curve, poor fit]"
same,Potency,[1],"inconclusive: 43.6 µM [inhibitor, single point]"
COc1cc(Cc2cnc(N)nc2N)cc(OC)c1OC,Potency,[2],"inconclusive: 35.5 µM [inhibitor, partial curve]"
COc1ccc(OC(=O)N(CC(=O)O)Cc2ccc(OCCc3nc(-c4ccccc4)oc3C)cc2)cc1,Potency,[1],inactive
CCc1cccc(C)c1N,Potency,[2],inactive
CC[C@]12CCCN3CCc4c(n(c5ccccc45)[C@@](O)(C(=O)OC)C1)[C@@H]32,Potency,[3],active: 14.1 µM
same,Potency,[1],active: 71 µM and inactive
OC1C(O)C(O)C(O)C(O)C1O (stereo unspecified),Potency,[2],inactive
COC(=O)NCCC[Si](OC)(OC)OC,Potency,[1],inactive
NC(=O)N/N=C/c1ccc([N+](=O)[O-])o1,Potency,[3],"inconclusive: 22.4 µM [activator, single point]"
same,Potency,[2],"inconclusive: 35.6 µM [inhibitor] and inconclusive: 17.4 µM [inhibitor, partial curve, poor fit]"
same,Potency,[1],inactive and active: 39.9 µM and active: 43.6 µM
CCCCOCCOCCOCCO,Potency,[1],inactive
CCCCCCCCCCCCCC(=O)OC(C)C,Potency,[2],inactive
CN(C[C@@H](CC[N+]12CCC(C3CCCCC3)(CC1)CC2)c1ccc(Cl)c(Cl)c1)C(=O)c1cc(C(F)(F)F)cc(C(F)(F)F)c1,Potency,[2],active: 15.9 µM
CC(C)CC(=O)CC(C)C,Potency,[2],"inconclusive: 36 µM [inhibitor, partial curve, poor fit]"
same,Potency,[1],"inconclusive: 90.3 µM [inhibitor, single point]"
